From patent publication US10391098B2, “Antisense antibacterial compounds and methods” (priority 2014, dated 2019) come the findings set out here.

Like-named read-outs stand apart in the source and are kept apart here. {(RXR)4XB} = cell-penetrating peptide (R arginine, X 6-aminohexanoic acid, B beta-alanine), conjugated via its C-terminal beta-alanine linked through a pip-PDA moiety; {TEG} = triethylene glycol end group (as defined in the publication); {Acetyl} = acetyl cap Bounds are passed on as bounds.

Series [1] concerns multi-drug-resistant strain of A. baumannii (AYE). Briefly: Colony-forming units at 24 hours, PPMO alone or combined with antibiotic. As to conditions: for effect of antibiotic on bacterial growth (CFUs): colistin 0.25 μg/ml, meropenem 0.5 μg/ml or tobramycin 2 μg/ml, alone or with control PPMO. How it is done:
(§1) Synergy Studies. […] Calculated values less than 1 indicated synergy.
A cell-penetrating peptide-conjugated phosphorodiamidate morpholino oligomer (PPMO) targeted against the A. baumannii acpP gene was prepared and its efficacy was evaluated in vitro against a multi-drug-resistant strain of A. baumannii (AYE).
The acpP-targeted PPMO#7 (2 μM) was added to bacterial cultures either alone or in combination with colistin (0.25 μg/ml), meropenem (0.5 μg/ml), or tobramycin (2 μg/ml). PPMO scramble control (2 μM), colistin (0.25 μg/ml), meropenem (0.5 μg/ml), and tobramycin (2 μg/ml) were added to bacterial cultures separately or in various combinations. Colony-forming units (CFUs) were counted at 24 hours.

For series [2], the system named is multi-drug-resistant strain of E. coli (A15070834 / AIS070834). Briefly: MIC of classic antibiotics with added PPMO (microdilution / checkerboard). Particulars: for MIC: Escherichia coli. The method, then:
Minimal Inhibitory Concentration Assays.
as §1
(§2) To determine whether the combination of active PPMOs and traditional antibiotics were additive or synergistic in their effects, checkerboard MIC assays were performed. The multidrug resistant E. coli AIS070834 was incubated with increasing concentrations of ftsZ PPMO (PPMO#46) or scrambled (Scr) PPMO (Scr-1) and increasing concentrations of either colistin, meropenem or tobramycin.
(In general: Dilution methods test growth across graded concentrations, often in twofold steps.)

In series [3] the test system is multi-drug-resistant strain of E. coli (A15070834). Description: Colony-forming units (viable cells) at 24 hours, PPMO alone or combined with antibiotic. How it is done: as §1
A cell-penetrating peptide-conjugated phosphorodiamidate morpholino oligomer (PPMO) targeted against the E. coli acpP gene was prepared and its efficacy was evaluated in vitro against a multi-drug-resistant strain of E. coli (A15070834).
The acpP-targeted PPMO (1 μM) was added to bacterial cultures either alone or in combination with tobramycin (2 μg/ml). PPMO scramble control (1 μM), peptide control (1 μM), and tobramycin (2 μg/ml) were added to bacterial cultures separately or in various combinations. Colony-forming units (CFUs) were counted at 24 hours.
as §2

For series [4], the system named is A. baumannii strains AYE and AB0057. Description: Kinetic minimal bactericidal concentration (MBC) viability assay. As to conditions: at 24 hours, both strains. How it is done: Minimal Bactericidal Concentration Assays.
At 24 hours, the acpP-targeted PPMO (PPMO#7) was bactericidal and below the limit of detection at PPMO concentrations of >4 μM in both strains tested (FIGS. 10B-10C). A PPMO with a scrambled oligo sequence linked to the same peptide (Scr-(RXR)4) had no effect on any strain (FIG. 10A-10C).

The mark [5] stands for this setting: PPMO 2 μM + colistin 0.25 μg/ml, 24 hours.

Broadly, the MIC is the lowest concentration found to suppress growth. For `NC[C@H]1O[C@H](O[C@H]2[C@H](O)[C@@H](O[C@H]3O[C@H](CO)[C@@H](O)[C@H](N)[C@H]3O)[C@H](N)C[C@@H]2N)[C@H](N)C[C@@H]1O` [tobramycin, reference compound], the “effect of antibiotic on bacterial growth (CFUs)” value (shortened to “effect of antibiotic”) in series [1] (24 hours) is listed as “did not have this significant of an effect”. Further, the MIC in series [2] (read-out: MIC of tobramycin) was found to be 270 µg/mL. Further, the “effect on bacterial growth (CFUs)” value in series [3] (tobramycin 2 μg/ml, PPMO scramble control 1 μM, alone or in combination, 24 hours) was “no significant effect”.

Consider “PPMO#1: acpP PPMO CTTCGATAGTG; 5' (RXR)4XB, 3' acetyl (all phosphorodiamidate morpholino (PMO), 5' {(RXR)4XB}, 3' {Acetyl}; further chemistry not given here)”, for which the “effect of PPMO on MIC of colistin, meropenem and tobramycin” value in series [2] (FIGS. 12A-12F) is listed as “significantly reduced the MIC”. Moreover, the “effect of increasing amounts of PPMO on MIC of tobramycin” value in series [2] (concentration-dependent, FIG. 2B-2C) is “significantly decreased”.

For “PPMO#46: Table 3B: pryA PPMO GACTTAATCAA; 5' TEG, 3' (RXR)4XB; called ftsZ PPMO in Example 7 (all phosphorodiamidate morpholino (PMO), 5' {TEG}, 3' {(RXR)4XB}; further chemistry not given here)”, in series [2] (2 μM PPMO), the “MIC of tobramycin in the presence of ftsZ PPMO” value is reported as “almost an undetectable level”. For the same molecule, the “MIC of colistin in the presence of ftsZ PPMO” value in series [2] (2 μM of ftsZ PPMO) worked out at 0.05 µg/mL. Further, the “MIC of meropenem in the presence of ftsZ PPMO” value in series [2] (4 μM ftsZ PPMO) was determined as 2 µg/mL. Further, in series [3] (all antibiotics tested, 24-h cultures), the “reduction in CFU/ml when ftsZ PPMO was combined with the antibiotic compared to either the PPMO or antibiotic alone” value is reported as “at least 4 logs”.

Turning to colistin [reference compound], the “effect of antibiotic” value in series [1] (24 hours) is recorded as “did not have this significant of an effect”. Moreover, the MIC of colistin in series [2] (without ftsZ PPMO, FIG. 14A) turned out to be 0.5 µg/mL.

In the case of “PPMO#2: acpP PPMO CTTCGATAGTG; 5' TEG, 3' (RXR)4XB (all phosphorodiamidate morpholino (PMO), 5' {TEG}, 3' {(RXR)4XB}; further chemistry not given here)”, the “reduction of bacterial growth (CFUs) relative to controls, in combination with tobramycin” value in series [3] (PPMO 1 μM + tobramycin 2 μg/ml, 24 hours) was “over 4 logs”. Also, the “reduction of bacterial growth (CFUs) relative to scramble PPMO and peptide controls” value in series [3] (PPMO 1 μM alone, 24 hours) is on record as “about 1 log”.

Consider `C[C@@H](O)[C@H]1C(=O)N2C(C(=O)O)=C(S[C@@H]3CN[C@H](C(=O)N(C)C)C3)[C@H](C)[C@H]12` [meropenem, reference compound], for which, in series [1] (24 hours), the “effect of antibiotic” value is listed as “did not have this significant of an effect”. Also, in series [2] (read-out: MIC of meropenem), the MIC turned out to be 12 µg/mL.

Turning to “PPMO#7: acpP PPMO ATATCGCTCAC; 5' TEG, 3' (RXR)4XB (all phosphorodiamidate morpholino (PMO), 5' {TEG}, 3' {(RXR)4XB}; further chemistry not given here)”, the “PPMO concentrations that were bactericidal and below the limit of detection” value in series [4] was more than 4 µM. In series [1] (setting [5]), the “additional reduction of bacterial growth relative to acpP-targeted PPMO alone, in combination with colistin” value is reported as approximately 3 logs and the “bacterial growth (CFUs) in combination with colistin” value is on record as “undetectable levels”. The “additional reduction of bacterial growth relative to acpP-targeted PPMO alone, in combination with meropenem” value in series [1] (PPMO 2 μM + meropenem 0.5 μg/ml, 24 hours) is recorded as approximately 2 logs. Moreover, the “additional reduction of bacterial growth relative to acpP-targeted PPMO alone, in combination with tobramycin” value in series [1] (PPMO 2 μM + tobramycin 2 μg/ml, 24 hours) is on record as approximately 1 log. The “reduction in CFU/ml when PPMO was combined with the antibiotic compared to either the PPMO or antibiotic alone” value in series [1] (all antibiotics tested (colistin, meropenem, tobramycin)) is reported as “at least 1 log”.
